Assay results published in PubChem BioAssay AID1347071 (National Center for Advancing Translational Sciences (NCATS), 2019).
Screen size: about 410,000 compounds; about 260 (0.063%) were called active. Inconclusive results, whose numbers are uncertain, are shown with a selection of clear calls. Calls come from the whole dose curve; as a rule, active = well fitted activation curve with a large enough effect; inconclusive = small, poorly fitted or top-dose-only effect; inactive = no such curve, though single readings can be large or run the other way. No potency is given beside an inconclusive call; the fits are too rough.

Assay: qHTS for compounds that reverse cellular toxicity of Amyloid beta (A-beta) peptide in yeast: Primary Screen; note: nearly all actives have a fitted effect of over 55% in size
Conditions: yeast expressing A-beta42, growth rescue, OD600, 48 h; growth rescue: at 46.1 µM (top of the series), 0% DMSO, 100% iron-clioquinol control
How it was run: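 Growth rescue measured by 600 nm absorbance after 48 h yeast culture at 30 C with compound. Values normalized between DMSO and an equimolar ferric chloride plus clioquinol control.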
Potency is the fitted concentration of half-maximal effect; tags give direction and shape of the fitted curve.

SMILES | Potency | growth rescue
CCOc1ccc(OCCCCN2CCCC2)cc1 | inconclusive [activator, single point] | –
Cc1cc(S(=O)(=O)Nc2ccc(O)c(Sc3nc4ccccc4s3)c2)ccc1Cl | inconclusive [activator, partial curve, poor fit] | –
CCN(CC)C(=O)CSc1nc2cc3c(cc2c(=O)n1CCCC(=O)NCc1ccc(OC)cc1)OCO3 | inactive | –
COc1ccc(CNc2nc(NCc3ccc(OC)cc3)n(S(C)(=O)=O)n2)cc1 | – | inactive: -4.14%
Cc1cc(C)c(NC(=O)C2CCCO2)c(C)c1NC(=O)C1CCCO1 (configuration not stated) | – | inactive: 0.423%
CC(=O)Nc1ccc(Nc2ncc([N+](=O)[O-])c(Nc3ccc(NC(C)=O)cc3)n2)cc1 | – | inactive: -2.01%
O=C1CC(=O)C(n2cncn2)C(c2ccc(Cl)cc2Cl)C1 (configuration not stated) | inconclusive [activator, partial curve, poor fit] | –
O=C(CSc1nccn1Cc1ccc(Cl)cc1)Nc1nc2ccccc2s1 | inconclusive [activator, single point] | –
Cc1cccc(C(=O)NC(=S)NC(C)c2ccccc2)c1 (configuration not stated) | inconclusive [activator, partial curve] | –
COc1ccc(NC2=C(Cl)C(=O)N(c3ccccc3)C2=O)c(OC)c1 | – | inactive: -1.14%
CC1(C)c2[nH]c3ccccc3c2C[C@H]2C(=O)N(Cc3ccccc3F)C(=O)N21 | inconclusive [activator, single point] | –
CC(C)CCN(C(=S)Nc1cccc(F)c1)C(C)c1cccs1 (configuration not stated) | inconclusive [activator, partial curve, poor fit] | –
CS(=O)(=O)N1CCC(c2noc(-c3ccc(C(F)(F)F)cc3)n2)CC1 | inconclusive [activator, partial curve, poor fit] | –
Cc1ccc(C2=CC(c3ccc(C)cc3)n3ncnc3N2)cc1 (configuration not stated) | inconclusive [activator, single point] | –
Cc1ccc2nc(NC(=O)COC(=O)c3ccc(Br)o3)sc2c1 | inconclusive [activator, full curve] | –
COc1ccccc1/C=C/c1nc(C#N)c(NC2CCCCC2)o1 | – | inactive: 3.88%
COCCCNC(=S)N1CCCN(c2nc3cc(C)c(C)cc3cc2C#N)CC1 | inconclusive [activator, single point] | –
COc1ccccc1Cc1c(-c2ccco2)nc2ccc(Cl)cn12 | – | inactive: -63.5%
COc1ccc(C(O)c2nc(-c3ccc4ccccc4c3)cs2)cc1 (configuration not stated) | – | inactive: 13.2%
CCOC(=O)COc1ccc(CC)cc1C(=O)c1ccn2nc(-c3ccc(F)cc3)cc2n1 | – | inactive: -5.91%
CCOC(=O)C(NC(=O)c1ccccc1)(OCc1ccccc1)C(F)(F)F (configuration not stated) | inconclusive [activator, full curve] | –
CCCC(=O)NC(c1cccs1)c1cc(Cl)c2cccnc2c1O (configuration not stated) | inconclusive [activator, single point] | –
O=C(c1ccc(COc2ccc(Br)cc2)o1)N1N=C(C(F)F)CC1(O)C(F)F (configuration not stated) | inconclusive [activator, partial curve] | –
CC(=O)Oc1cc2c(c3ccccc13)CCC2=O | – | inactive: 16.4%

SMILES | Potency | growth rescue
CC1CCN(S(=O)(=O)c2ccc(C(=O)Nc3nnc(C4CC4)o3)cc2)CC1 | active: 12.6 µM | –
CCCCNC(=S)N/N=C/c1ccccc1F | inconclusive [activator, full curve] | –
COc1cccc(NC(=O)COC(=O)c2sccc2C)c1 | inconclusive [activator, partial curve, poor fit] | –
Cc1occc1-c1n[nH]c(=S)n1-c1ccccc1 | inconclusive [activator, single point] | –
Cc1nn(C(C)(C)C)c(OC(=O)CC(C)C)c1S(=O)(=O)c1ccccc1 | inconclusive [activator, partial curve, poor fit] | –
Nc1nc(SCc2ccc(Cl)cc2)ns1 | inconclusive [activator, partial curve, poor fit] | –
COc1ccc(Cl)cc1NC(=O)c1cn(C2CCCC2)c(=O)c2c1c1ccccc1n2C | inconclusive [activator, single point] | –
CCCCC(=O)NC(c1ccccc1OC)c1ccc2cccnc2c1O (configuration not stated) | inconclusive [activator, single point] | –
CCN(CC)c1cc(C)c2cc(NC(=O)/C=C/c3cc(OC)c(OC)c(OC)c3)ccc2n1 | – | inactive: -1.54%
O=C(CSc1nccn1Cc1ccc(F)cc1)Nc1nc2ccccc2s1 | inconclusive [activator, single point] | –
Cc1cc(C)c2ccc(=S)[nH]c2n1 | inconclusive [activator, single point] | –
O=C(CC(CC(=O)c1ccccc1)C(=O)O)c1ccccc1 | inconclusive [activator, single point] | –
CN(Cc1ccccc1)C(=O)c1ccc(CSc2nc3cccnc3n2Cc2ccccc2F)cc1 | – | inactive: -26.7%
COc1ccc(CN(C)C(=O)CCl)cc1 | – | inactive: -9.79%
C=CCn1c(SCC(=O)N2CCCC2)nc2scc(-c3cccs3)c2c1=O | inconclusive [activator, partial curve, poor fit] | –
NC(=S)N/N=C\c1ccccc1OCc1ccccc1 | inconclusive [activator, partial curve, poor fit] | –
COc1ccc(C(=O)CSc2nnc3n2CCCN3C(=O)Nc2ccccc2)cc1 | – | inconclusive: 4.99% [activator]
CCCC(=O)NC(=S)Nc1cccc(Cl)c1N1CCCC1 | inconclusive [activator, partial curve, poor fit] | –
Cc1ccc(NC(=O)c2nc[nH]c2C(=O)N[C@@H](C)C(=O)OC(C)(C)C)cc1 | inconclusive [activator, partial curve] | –
S=C(NCc1ccccc1)Nc1ccc2ccccc2c1 | inconclusive [activator, partial curve, poor fit] | –
Cc1ccc(C2(c3noc(CN(C)CC4CCCCO4)n3)CCCC2)cc1 (configuration not stated) | inconclusive [activator, single point] | –
CCCCC(=O)NC(=S)NNC(=O)c1ccc(OC)cc1 | inconclusive [activator, partial curve, poor fit] | –
CCCc1ccc(C(C)NC(=S)NCc2ccc(F)cc2)cc1 (configuration not stated) | active: 3.55 µM | –
O=C(CCC1CCCCC1)NNC(=O)c1cnccn1 | inconclusive [activator, single point] | –

SMILES | Potency | growth rescue
COc1ccc(NC(=S)NC(=NS(=O)(=O)c2ccc(Cl)cc2)c2ccccc2)cc1 | inconclusive [activator, single point] | –
CS(=O)(=O)N1CCC(CO)(Cc2ccccc2C(F)(F)F)CC1 | inconclusive [activator, partial curve, poor fit] | –
Cc1cccc(NC(=S)N2CCCCC2)c1 | – | inconclusive: 33.3% [activator]
COc1cc2c(cc1[N+](=O)[O-])-c1ccccc1C2 | inconclusive [activator, full curve] | –
CCCn1c(-c2cccc(Br)c2)nc2ccccc21 | – | inactive: -9.82%
CCCSc1nsc(NC(=O)CCC)n1 | inconclusive [activator, single point] | –
O=C(NC(=S)NCc1ccccc1)C1CCCCC1 | inconclusive [activator, partial curve, poor fit] | –
Cc1nc2ccccn2c1C(=O)NN=C1C2CC3CC(C2)CC1C3 | inconclusive [activator, partial curve, poor fit] | –
Cc1ccc(S(=O)(=O)N2CCN=C2SCc2c(F)cccc2Cl)cc1 | inconclusive [activator, partial curve, poor fit] | –
CN1/C(=C/C(=O)c2nc(S(C)(=O)=O)ncc2Cl)C(C)(C)c2ccccc21 | – | inactive: -15.2%
O=C(/C=C\c1ccccc1)Nc1ccc(NC(=O)c2ccco2)cc1 | – | inactive: -18%
O=C(CCNS(=O)(=O)c1ccc(Cl)cc1)N1CCC2(O)CCCCC2C1 (configuration not stated) | – | inconclusive: 30.7% [activator]
COc1ccc(CNc2ccncc2)c(OC)c1OC | – | inactive: -15%
COCCNC(=S)Nc1ccccc1Cc1ccccc1 | inconclusive [activator, single point] | –
CC(=O)Nc1ccc(S(=O)(=O)Nc2cc(-c3ccccc3)nn2C)cc1 | – | inactive: 1.42%
N/C(=N\OC(=O)Cc1ccccc1[N+](=O)[O-])c1ccc(Br)cc1 | inconclusive [activator, partial curve] | –
CCN(CC)C(=O)CSc1nnc(-c2ccccn2)n1-c1ccccc1OC | inconclusive [activator, single point] | –
O=C1CC(c2ccc(O)c(O)c2)Oc2cc(O)cc(O)c21 (configuration not stated) | – | inactive: -2.62%
O=[N+]([O-])c1ccccc1Oc1ccc(Cl)c2cccnc12 | – | inactive: 20.2%
CCOc1cc(/C=C2/C(=O)ON=C2C)ccc1O | inconclusive [activator, single point] | –
CC(=O)Nc1cccc(-c2ccnc3c2CC(C)(C(=O)NCC2CC2)O3)c1 (configuration not stated) | – | inactive: 3.29%
Cc1ccn2c(C(=O)NN=C3CCN(C)CC3)c(C)nc2c1 | inconclusive [activator, single point] | –
O=C(NC(=S)NCc1ccccc1)c1ccccc1 | active: 11.2 µM | –
COC(=O)c1ccc2[nH]c3c(c2c1)CC(C)CC3 (configuration not stated) | inconclusive [activator, partial curve, poor fit] | –
